From ChEMBL document CHEMBL4888484, “Replenishing the malaria drug discovery pipeline: Screening and hit evaluation of the MMV Hit Generation Library 1 (HGL1) against asexual blood stage Plasmodium falciparum ,using a nano luciferase reporter read-out” (2022) come the findings set out here.

The whole screen tested about 150,000 compounds, of which about 540 (0.36%) showed an effect of 50% or more. The list shows a part of the results.

The test has as its system Plasmodium falciparum. The test is described as follows: Primary screen in NF54 nanoGlo assay, in single point, at 2uM, 72h; a lower Z score goes with more inhibition. Type of test: functional, Erythrocyte. The settings on record: timepoint 72 hour.
Take `Cc1n[nH]c(C)c1NC(=O)Nc1ncc(Cc2ccccc2)s1`: the “% Inhibition” value is on record as -2% and the Z score worked out at 0.24.

Take `c1c[nH]c(-c2nc(C3CCOCC3)n[nH]2)c1`: the “% Inhibition” value is -6% and the Z score is 1.12.

In the case of `CN(Cc1ccccc1OCCCn1ccnc1)[C@H]1COC[C@@H]1O`, the “% Inhibition” value was -1% and the Z score was 0.08.

With `Cc1nc(C)n(CCNc2nc3c(s2)c(C)nn3C)n1`, the “% Inhibition” value is given as -2% and the Z score is reported as 0.33.

For `CCOc1cccc(S(=O)(=O)N(C)c2ccc(C)nn2)c1`, the “% Inhibition” value is -9% and the Z score was found to be 0.97.

As for `CCc1c(C)c(C(=O)N2CCOCC2)n(Cc2ccc(F)c(F)c2)c1C`, the “% Inhibition” value was -16% and the Z score is 1.59.

Regarding `COc1ccccc1CCNC(=O)C1CN(c2nc3c(F)cccc3s2)C1`, the “% Inhibition” value is listed as -1% and the Z score was 0.17.

With `O=C(CN(C[C@H]1CCCO1)C(=O)c1ccc(Cl)c(Cl)c1)N(Cc1ccc(F)cc1)Cc1cccs1`, the “% Inhibition” value is -4% and the Z score is 0.39.

In the case of `CC[C@H](OC1CCCCC1)C(=O)Nc1cn[nH]c1`, the “% Inhibition” value was -8% and the Z score amounted to 1.12.

`CN1CCCN(S(=O)(=O)NCc2ccccc2)CC1`: the “% Inhibition” value was -3% and the Z score is listed as 0.52.

As to `Nc1cc(C(=O)N[C@@H]2COCC[C@@H]2OCC2CC2)n[nH]1`, the “% Inhibition” value is -5% and the Z score was found to be 0.74.

On to `CC(=O)N1CCN(C(=O)NC2Cc3ccccc3C2)CCC12CCOCC2`, for which the “% Inhibition” value is recorded as -13% and the Z score is reported as 1.47.

For the molecule `Cc1cccc(-n2c(=O)n(C3CC3)c(=O)c3c2ncn3Cc2cccc(C(F)(F)F)c2)c1`, the “% Inhibition” value is given as -5% and the Z score was found to be 0.65.

With `Cc1cc(NC(=O)N2CCO[C@H](C(F)(F)F)[C@@H]2C)cc(C(N)=O)c1`, the “% Inhibition” value worked out at 10% and the Z score was -1.9.

In the case of `C[C@H]1CN(C(=O)Nc2ccc(S(C)(=O)=O)cc2)N=C1c1ccc(S(C)(=O)=O)cc1`, the “% Inhibition” value is given as -11% and the Z score is 1.34.

For `CCn1nc(COc2ccc(OC)cc2)nc1-c1ccc(CN(C)C)o1`, the “% Inhibition” value is on record as 12% and the Z score is -1.82.

On to `CC(C)n1ncc(C(O)(C(F)(F)F)C(F)(F)F)c1NC(=O)c1ccn(C)n1`, for which the “% Inhibition” value is given as -2% and the Z score turned out to be 0.29.

`CC[n+]1ccc(-c2ncc(-c3ccc(C(C)(C)C)cc3)o2)cc1`: the “% Inhibition” value worked out at 66% and the Z score is reported as -12.84.

In the case of `CC1CC(NC(=O)c2csnn2)CCN1Cc1ccccc1` (centres undefined), the “% Inhibition” value is -6% and the Z score is 1.13.

`CC1(C)Cc2c(cnn2-c2cccc(F)c2)[C@@H](NS(=O)(=O)N2CCOCC2)C1`: the “% Inhibition” value amounted to 14% and the Z score is listed as -1.95.

Consider `Cc1ccc(C)c(CC(=O)N2CCCO[C@@H](C)C2)c1`, for which the “% Inhibition” value amounted to 6% and the Z score is -1.17.

Consider `CC(=O)N[C@H]1C[C@H](c2nnc(CN3Cc4cnc(C)cc4C3)n2C)C1`, for which the “% Inhibition” value is -22% and the Z score is on record as 2.18.

Turning to `CCCc1cc(C(=O)N2CCC3(CC2)NC(=O)NC3=O)sc1C`, the “% Inhibition” value is given as -13% and the Z score is 1.95.

For the molecule `CC#CCN(Cc1ccco1)C(=O)c1cn(CCN2CCCCC2)nn1`, the “% Inhibition” value was found to be 5% and the Z score is -0.93.

For the molecule `CCn1c(CN2CCC(C)CC2)nc2cc(S(=O)(=O)N3CCCCC3)ccc21`, the “% Inhibition” value is 7% and the Z score was -1.02.

Regarding `COC(=O)c1ccc(C2(CN)CC2)cc1`, the “% Inhibition” value was -10% and the Z score is 0.96.

For the molecule `CN(Cc1ncc[nH]1)C(=O)C1C2C(=O)N(CC(C)(C)C)C[C@@]23C=C[C@@H]1O3` (some centres undefined), the “% Inhibition” value is -11% and the Z score worked out at 1.23.

For the molecule `O=C(O)[C@H](Cc1ccccc1)NC(=O)C1(N2CCCC2)CCCC1`, the “% Inhibition” value was -6% and the Z score is listed as 0.64.

`NS(=O)(=O)c1cnc(N2CCC[C@H](c3nccs3)C2)s1`: the “% Inhibition” value was -11% and the Z score amounted to 1.79.

For `O=C(Nc1ccc2ncnc(N3CCCCC3)c2c1)c1cncc(Br)c1`, the “% Inhibition” value is listed as -6% and the Z score stood at 1.16.

On to `CC(=O)Nc1onc(C)c1-c1ccc(C)c(S(=O)(=O)Nc2cc(C)ccc2C)c1`, for which the “% Inhibition” value is given as -4% and the Z score stood at 0.64.

In the case of `CCOc1ccc(CCn2c3c(c(=O)[nH]c2=O)C(C(F)(F)F)(C(F)(F)F)N=C(c2ccccc2F)N3)cc1OCC`, the “% Inhibition” value is given as -18% and the Z score was found to be 2.33.

On to `OC1(c2csc(CN3CCc4ccccc4C3)n2)CCNCC1`, for which the “% Inhibition” value was determined as 10% and the Z score is reported as -1.22.

Regarding `C[C@H]1Cc2cc(C(=O)NCc3nc(C(F)(F)F)n[nH]3)ccc2O1`, the “% Inhibition” value stood at 43% and the Z score is reported as -6.15.

Turning to `O=C(NCCc1cccc(-c2ccccc2)c1)[C@H]1CCNC1`, the “% Inhibition” value was -16% and the Z score came to 1.87.

Regarding `Cc1ccc(-c2cc(C(=O)NC3CC3)nn2C)cc1`, the “% Inhibition” value is -10% and the Z score was found to be 1.31.

`COC(=O)c1c(-c2csc(-c3ccc(NC(C)=O)cc3)n2)c(C)n(C(C)C)c1C`: the “% Inhibition” value is recorded as -11% and the Z score is 1.48.

`Oc1ccc2c(c1)CN([C@H]1CCCc3ccccc31)CC2`: the “% Inhibition” value is reported as -5% and the Z score is reported as 0.69.

Turning to `O[C@H](CN1CCCNc2ccccc21)Cn1cccn1`, the “% Inhibition” value is 5% and the Z score is -0.6.

For the molecule `COC(=O)c1cc(-n2cnc3ccccc32)c[nH]1`, the “% Inhibition” value is on record as -16% and the Z score stood at 1.77.

For `CCc1noc(C)c1COc1cc(N(C)C)ccc1C(C)=O`, the “% Inhibition” value was found to be 23% and the Z score is -2.56.

As to `CC(C)(C)c1cccc(OS(=O)(=O)c2cccnc2)c1`, the “% Inhibition” value was -12% and the Z score is 1.9.

Broadly, the % Inhibition is the relative decrease from the control value, in per cent.
